Not every entry of the source has a single result; some have several. This list holds those alone. An entry can have further records. The values listed for one entry repeat one measurement across runs, samples, wells, individuals or studies. Marks such as (2×) count equal records among those shown.
Test system: MCF7 multi-cell spheroids with HUVEC/MSC, viability
Experiment: Anticancer human tumor MCF7 cell line growth inhibition [IpAb];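 also: spheroids exposed to agents for seven days before readout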
Settings: for viability, T/C: stronger effect = lower value
Description: Combinatorial screen of targeted agents with ipatasertib and abemaciclib in multi-cell type tumor spheroids
A high-throughput screen of multi-cell type tumor spheroids was designed to identify active combinations of targeted small molecules and ipatasertib or abemaciclib. Complex spheroids include a stromal component modeled by human endothelial cells (HUVEC) and fibroblasts modeled by human mesenchymal stem cells (MSCs). The concentration ranges selected for each drug and investigational agent were based upon clinically achievable concentrations if the clinical Cmax of the agent was known.
Compounds. The drugs and investigational agents: ipatasertib (NSC767898), abemaciclib(NSC768073), selumetinib (NSC741078), trametinib (758246), adavosertib (NSC754352), everolimus (NSC733504), sapanisertib (NSC764658), vemurafenib (NSC761431), venetoclax (NSC766270), copanlisib (NSC809693), apelisib (NSC765974), palbociblib (NSC758247), vemurafenib (NSC761431), dabrafenib (NSC764134), ravoxertinib (NSC781343), BMS-387032 (NSC767048), sotorasib (NSC818433), talazoparib (NSC767125) and afursertib (NSC778305), were obtained from the National Cancer Institute (NCI) Developmental Therapeutics Program Chemical Repository. The FDA-approved anticancer drug set is available from the NCI Developmental Therapeutics Program. […] The stock solutions were prepared in dimethyl sulfoxide (DMSO, Sigma-Aldrich, St. Louis, MO, cat. D2650) at 800-fold the tested concentration and stored at -70 degrees C prior to their use. All drugs and investigational agents were tested over a range starting from a high concentration at or near the clinical Cmax and decreasing in half-log increments. If the clinical Cmax for an agent had not been determined, the highest concentration tested was 10 microM.
NCI60 Cell Culture. NCI60 cell lines were obtained from the NCI Developmental Therapeutics Program Tumor Repository. For each lot of cells, the Repository performed Applied Biosystems AmpFLSTR Identifiler testing with PCR amplification to confirm consistency with the published Identifier STR profile for each cell line. Cells were kept in continuous culture for no more than 20 passages. The optimal seeding densities for each of the cell lines at each time point assessed were determined prior to performing the concentration response studies. Briefly, the NCI60 human tumor lines were grown as monolayers in RPMI 1640 medium supplemented with 10% FBS and 2 mmol/L L-glutamine.
An additional 9 lines were from the NCI60 cell line panel including MDA-MB-231 breast carcinoma, MDA-MB-468 breast carcinoma, MCF7 breast carcinoma, Hs578T breast carcinoma, MALME-3M melanoma, SK-MEL-2 melanoma, SK-OV-3 ovarian carcinoma, DU-145 prostate carcinoma, PC-3 prostate carcinoma, all cell lines along with major genetic alterations are listed on Table 2. Pooled donor human umbilical vein endothelial cells (HUVEC, Lonza, cat. CC-2519) and human mesenchymal stem cells (hMSC, Lonza, cat. PT-2501) were purchased from Lonza (Walkersville, MD).
PDMR cell lines were grown in complete medium (DC medium): Dulbecco's modified Eagle's medium (DMEM)/F12 supplemented with 5% fetal bovine serum (FBS), 2 mM L-glutamine, 100 U/mL penicillin and 100 µg/ml streptomycin, 0.4 µg/ml hydrocortisone, 10 ng/ml epidermal growth factor (EGF) recombinant human protein, 24 µg/mL adenine, and 0.1 mg/mL primocin. During culture from frozen stock vials, PDMR cells were cultured in the same medium containing 10 µM Y-27632 (see Table 3). […]

`CC(C)NCC(C(=O)N1CCN(c2ncnc3c2C(C)CC3O)CC1)c1ccc(Cl)cc1` (stereo not given) was tested, and the viability, T/C (compound alone 10 µM) was 34.9, 27.5, 41, 40.8, 51, 24.1, 29.4, 44.1, 44.7, 45.7, 31.8, 37, 34.5% and the IC50 (compound alone, run of 06/01/2021) was 1.69 µM, 2.07 µM, 4.07 µM, 5.37 µM, > 10 µM, 1.12 µM, 2.27 µM, 4.79 µM, 6.2 µM, 6.7 µM, 2.38 µM, 2.8 µM, 4.73 µM.

`CCN1CCN(Cc2ccc(Nc3ncc(F)c(-c4cc(F)c5nc(C)n(C(C)C)c5c4)n3)nc2)CC1` was tested, and the viability, T/C (compound alone 0.1 µM) was 114, 90.8, 100, 101, 103 (2×), 104 (2×), 102, 111, 117, 106% (2×), the viability, T/C (compound alone 0.316 µM) was 110, 93, 79.4, 97.8, 120, 94.9, 123, 85.5, 107 (2×), 112, 103, 98.2% and the viability, T/C (compound alone 1 µM) was 105 (2×), 93.2, 68.7, 103, 102, 80.6, 92.5, 82.2, 75, 113, 94.3, 93.5%.

Source: PubChem BioAssay AID2060329 (Molecular Pharmacology Branch, DTP, NCI, 2025)
